Assay results: publication PMC12040169 (PLOS Biology, 2025)
The other results are listed elsewhere or left out.

The molecules below were run on T1, C. trachomatis L2/434/Bu expressing GFP (CTL2-GFP). Conditions: total inclusion area; 28.5 h, 10 µM; inhibitor.
T1 construct: L2/434/Bu GFP intracellular growth in HeLa cells
Design: species or system HeLa; C. trachomatis total inclusion area by high-content imaging, normalised to DMSO
Method in brief: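 Imaging read-out: GFP inclusions and Hoechst nuclei captured by high-content imaging after fixation. Inclusion area/number = chlamydial growth; nuclei count = host cell viability. MIC calculated per earlier method.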

Row | SMILES | % of control remaining
1 | Cc1ccc(S(=O)(=O)NCCc2ccccn2)s1 [CBK269223] | 79.5127
2 | COc1nccnc1N1CCN(CCCn2c(=O)[nH]c3ccccc32)CC1 [CBK084226] | 103.519
3 | CC1CCCCC1NC(=O)CSc1cccc2cccnc12 (stereo not shown) [CBK058143] | 70.7906
4 | Cc1ccc(-c2nc3ccc(C)cc3c(C(=O)OCC(=O)c3cccc([N+](=O)[O-])c3)c2C)cc1 [CBK264436] | 102.239
5 | COc1cc(CN2CCNCC2)c2ccn(S(=O)(=O)c3ccccc3Cl)c2c1 [CBK144483T] | 56.4618
6 | COc1ccc(C(=O)N2CCC3(CC2)NC(=O)c2cc(C)ccc2O3)cc1C [CBK166277] | 115.926
7 | CC(C)C1OC(N2CCOCC2)=NC1=O (stereo not shown) [CBK070384] | 102.244
8 | O=C(c1cnccc1C(F)(F)F)N1Cc2ccccc2C1 [CBK200323] | 100.547
9 | O=C(Nc1nc(-c2cccnc2)cs1)c1ccccc1 [CBK287569] | 132.383
10 | CC(C)(C)c1ccc(C(=O)N2CCCCC2CO)cc1 (stereo not shown) [CBK073951] | 73.0532
11 | CS(=O)(=O)Nc1cccc2cc[nH]c12 [CBK159509] | 96.219
12 | Cn1cncc1CN(CCCn1ccnc1)Cc1ccccc1Cl [CBK283041] | 109.825
13 | Nc1nc(N2CCCCC2)nc2ccccc12 [CBK012270] | 65.6804
14 | CC(C)C(=O)N1CCC(n2nc(-c3cccs3)ccc2=O)CC1 [CBK284181] | 73.5811
15 | CSCCCNC(=O)c1ccc2c(c1)nc(N1CC[C@H](O)C1)n2C [CBK306807] | 79.6581
16 | Cc1nnc(SCC(=O)N2CCN(c3ccc(Cl)cc3)CC2)s1 [CBK307389] | 55.4503
17 | COc1cc(C(c2c(C(=O)O)[nH]c3ccccc23)c2c(C(=O)O)[nH]c3ccccc23)cc(I)c1O [CBK267804] | 123.796
18 | CSCCN1CCC(Oc2nccnc2OCCN2CCOCC2)CC1 [CBK082935] | 91.8724
19 | CN1CCN(C(=O)CN(CC(=O)N2CCN(C)CC2)S(=O)(=O)c2ccc(Cl)cc2)CC1 [CBK269627] | 109.412
20 | O=[N+]([O-])c1ccccc1S(=O)(=O)Nc1ccc(S(=O)(=O)Nc2ccccc2)cc1 [CBK264796] | 107.214

Row | SMILES | % of control remaining
21 | O=C(CN1CCCC1Cn1cncn1)NCCc1ccsc1 (stereo not shown) [CBK305113] | 74.262
22 | CCN(CC)Cc1ccc(C(=O)N2CCC(c3ccncc3)CC2)o1 [CBK283051] | 72.4491
23 | CCCC(C)C(=O)Nc1ccncc1 (stereo not shown) [CBK057984] | 48.012
24 | CC1(C)Cc2c(cnn2-c2ccc(F)cc2)C(NS(C)(=O)=O)C1 (stereo not shown) [CBK307403] | 66.745
25 | CCc1nc2ccc(C(=O)Nc3ccc(NC(C)=O)cc3)cn2c1N(CC)Cc1ccc(OC)c(OC)c1 [CBK146994] | 95.608
26 | O=S1(=O)C=C(N2CCCCCC2)CC1 [CBK025571C] | 60.2399
27 | O=c1cc(O)c2ccccc2n1Cc1ccccc1Cl [CBK291255] | 115.64
28 | Cc1ccc(C(=O)Nc2nc(C)c(-c3n[nH]c(=S)n3C)s2)cn1 [CBK295327] | 104.324
29 | Nc1ccc(S(=O)(=O)O)c2cccc(S(=O)(=O)O)c12 [CBK261492N] | 97.5195
30 | COc1ccc([C@@]23CC[C@H](NC(=O)CSc4nccn4C)C[C@@H]2N(C)CC3)cc1OC [CBK036444] | 65.7174
31 | CC(C)CN1CCC[C@H]1c1nc(-c2ccc(-n3ccnc3)nc2)no1 [CBK288894] | 112.619
32 | CCNC(=O)N1CC2(CCN(CCOCC)CC2)c2ccccc21 [CBK136972] | 87.5339
33 | O=C(O)/C=C/C(=O)Nc1ccc(S(=O)(=O)NCc2ccco2)cc1 [CBK264500] | 104.775
34 | CC(C)N1CCC(CNC(=O)c2cccc(N3CCCC3=O)c2)CC1 [CBK282641] | 101.521
35 | NCc1oc(-c2ccccc2)cc1C(=O)O [CBK265941C] | 87.5189
36 | O=C(Cn1cc(C(=O)NCc2ccccc2)ccc1=O)NC1(c2ccccc2)CCCC1 [CBK285753] | 105.014
37 | COc1ccc(S(=O)(=O)NCCN2CCOCC2)c(C)c1C [CBK266479] | 118.191
38 | CN(C(=O)c1cc(S(=O)(=O)N2CCOCC2)ccc1F)C1CCCCC1 [CBK304580] | 61.8997
39 | Cc1sc2ncnc(SCC(=O)Nc3sc4c(c3C#N)CCCC4)c2c1-c1ccccc1 [CBK265938] | 82.261
40 | O=C(NCc1nnc(-c2cccs2)o1)C1c2ccccc2Oc2ccccc21 [CBK286297] | 114.746
